Among all 310,000 compounds or so, about 14,000 (4.5%) showed an effect of 50% or more. The effect is printed as a negative number. The list shows a part of the results.
What follows are compounds tested against human ether-à-go-go-related gene (hERG) potassium channel (human, UniProt Q12809) (assay: primary screen, population patch clamp on CHO cells stably expressing hERG).
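Note: peak tail current of the secondary pulse compared with the same well before compound.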

Sequence of human ether-à-go-go-related gene (hERG) potassium channel (Q12809 whole entry, looked up): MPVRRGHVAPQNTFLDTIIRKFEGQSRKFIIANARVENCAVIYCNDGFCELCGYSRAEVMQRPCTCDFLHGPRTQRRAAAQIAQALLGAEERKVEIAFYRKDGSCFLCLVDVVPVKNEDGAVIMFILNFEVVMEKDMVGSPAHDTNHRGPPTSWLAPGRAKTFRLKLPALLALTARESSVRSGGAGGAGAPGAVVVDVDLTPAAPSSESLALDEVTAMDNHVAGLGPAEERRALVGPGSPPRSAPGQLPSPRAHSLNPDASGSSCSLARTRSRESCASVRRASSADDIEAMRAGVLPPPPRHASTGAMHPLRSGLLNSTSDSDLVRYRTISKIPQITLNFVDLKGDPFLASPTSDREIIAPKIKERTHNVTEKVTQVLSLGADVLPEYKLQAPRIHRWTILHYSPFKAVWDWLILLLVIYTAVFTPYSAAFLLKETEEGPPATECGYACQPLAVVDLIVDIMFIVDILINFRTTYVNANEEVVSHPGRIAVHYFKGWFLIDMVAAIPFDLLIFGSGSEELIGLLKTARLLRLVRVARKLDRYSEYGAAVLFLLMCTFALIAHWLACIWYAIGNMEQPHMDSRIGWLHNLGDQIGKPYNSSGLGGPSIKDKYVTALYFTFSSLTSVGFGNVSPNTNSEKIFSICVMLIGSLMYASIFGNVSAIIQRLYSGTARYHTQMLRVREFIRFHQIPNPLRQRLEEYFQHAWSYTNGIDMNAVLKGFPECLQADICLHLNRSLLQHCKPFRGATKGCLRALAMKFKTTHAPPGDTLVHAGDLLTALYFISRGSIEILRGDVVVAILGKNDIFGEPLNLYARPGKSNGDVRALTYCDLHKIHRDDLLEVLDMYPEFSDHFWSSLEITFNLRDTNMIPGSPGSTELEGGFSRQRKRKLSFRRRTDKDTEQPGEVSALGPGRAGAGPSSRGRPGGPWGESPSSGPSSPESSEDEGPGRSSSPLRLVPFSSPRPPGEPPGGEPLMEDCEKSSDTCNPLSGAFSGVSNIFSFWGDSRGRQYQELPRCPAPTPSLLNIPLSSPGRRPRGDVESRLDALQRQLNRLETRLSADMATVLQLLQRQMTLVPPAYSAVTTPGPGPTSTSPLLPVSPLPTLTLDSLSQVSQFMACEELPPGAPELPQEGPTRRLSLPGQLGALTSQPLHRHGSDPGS

Compound | hERG current change (%, negative = inhibition) at 10uM [%]
Cc1ccc(NC(=O)C(OC(=O)c2ccccc2Cl)c2ccccc2)cc1Cl (centres unmarked) | 13.6
COc1ccc(CNC(=O)CN(C)S(=O)(=O)c2ccc(Br)s2)cc1 | -12.7
COc1cccc(CNC2CCCCCCC2)c1OC | 10.5
CC1CCN(S(=O)(=O)c2ccc(C(=O)NCc3cccnc3)cc2)CC1 | -5.44
CC1=C(C(=O)OCC(Cl)(Cl)Cl)N2C(=O)C(NC(=O)Cc3ccccc3)C2SC1 (centres unmarked) | 15.5
CCCCCCCNC(=O)CN1N=C(c2ccc(C)cc2)CCC1=O | -67.8
CC(Sc1ncccn1)C(=O)NC1CCCC1 (centres unmarked) | 5
O=C(CCC1CCCN(C(=O)c2cc3ccccc3o2)C1)NCc1ccc(F)c(F)c1 (centres unmarked) | -36.9
Cc1cc(NC(=O)Nc2cccc(C)c2C)no1 | 16
Cc1nn(C)c(Nc2ccc(Br)cc2)c1Br | -8.49
Cc1ccnc(NS(=O)(=O)c2ccc(NC(=O)CCOc3ccccc3)cc2)n1 | 15.7
CCOC(=O)c1sc2nc(C)nc(Nc3ccc(OC)cc3)c2c1C | 24.1
COC(=O)c1ccccc1NC(=O)N1CCN(S(C)(=O)=O)CC1 | 22.2
O=C(Cn1nnc(-c2cccs2)n1)NCCc1ccccc1 | 5.74
CC(C)CC[n+]1ccn(-c2nc3ccccc3nc2[N-]S(=O)(=O)c2ccccc2)c1 | 0.998
O=C(NCc1ccccc1)c1csc2c1CCCC2 | 5.15
O=C(c1ccc(F)cc1)N1CCC(N2CCOCC2)CC1 | -5.45
COc1cccc(NC(=O)CN(C)C(=O)/C=C/c2cn(-c3ccccc3)nc2-c2ccc(C)cc2)c1 | -2.64
CCN(CC)c1nc2n(c(=S)n1)CCS2 | 3.89
Cc1ccc(S(=O)(=O)N(CC(=O)NCC2CCCO2)C2CCCCC2)cc1 (centres unmarked) | -10.6
CC(=O)C1C(c2cccc([N+](=O)[O-])c2)C2C(C)=NN=C2CC1(C)O (centres unmarked) | 1.42
COc1ccc(Cn2c(N)c(S(=O)(=O)c3cccs3)c3nc4ccccc4nc32)cc1 | 1.62
Cc1cc(C)c2c(CC(=O)NCCc3ccccc3)coc2c1 | 14.8

Compound | hERG current change (%, negative = inhibition) at 10uM [%]
CC(=O)NC(Cc1ccccc1C)C(=O)NC1CCN(C(=O)c2ccc(C)cc2)CC1 (centres unmarked) | -19.9
OC(CN1CCN(Cc2ccccc2)CC1)c1ccccc1 (centres unmarked) | -30.3
COc1ccc(Nc2nc3c(C)cccc3cc2C#N)c(OC)c1 | 12.1
COc1ccc(C2c3[nH]c4ccccc4c3C[C@H]3C(=O)N(c4ccccc4C(=O)NCCN4CCOCC4)C(=O)N23)cc1 (some centres unmarked) | -23.7
CCCCCCSc1cc(-c2nc3cc(C)ccn3c2NC2CCCCC2)ccc1OC.O=C(O)C(F)(F)F | 10.3
Cn1nc(C(F)(F)F)c(-c2ccccc2)c1NC(=O)c1nccnc1C(=O)O | 19.2
CCCCn1c(N)c(N(CCC(C)C)C(=O)C2CCCC2)c(=O)[nH]c1=O | 1.27
CSc1snnc1-c1ccccc1 | 25.6
CCN(C(=O)c1ccc2c(=O)n3c(nc2c1)CCCCC3)c1ccc(F)cc1 | -3.52
CC(C)(C)Cc1nc(-c2ccc(Cl)cc2)no1 | 14.9
CCOCCn1c(CN2CCc3ccccc3C2)nc2c1c(=O)n(C)c(=O)n2C | -7.38
Cc1ccc(OCc2ccc(C(=O)Nc3ccc(C(N)=O)cc3)o2)c([N+](=O)[O-])c1 | 10.5
CC1CCCCC1NC(=O)CSc1nnc(N)s1 (centres unmarked) | -22.7
CCCCNC(=O)C1(O)c2ccccc2NC(=O)N1c1ccc(Cl)cc1 (centres unmarked) | 13.3
CCOc1ccc(/C=N/NC(=O)C(O)c2ccccc2)c(O)c1 (centres unmarked) | 15.3
Nc1nnc(SCCN2C(=O)c3ccccc3S2(=O)=O)s1 | 6.63
COCCCn1c(=O)c2sccc2n2c(CCCC(=O)N3CCN(c4ccccn4)CC3)nnc12 | -2.18
COc1cc(NS(=O)(=O)N2CCCC2)cc(OC)c1OC | 4.77
O=C(NCc1ccccc1)C1(C(F)(F)F)C/C(=C/CCO)CCCO1 (centres unmarked) | 5.71
CS(=O)(=O)N(CC(=O)Nc1ccccc1C(=O)N1CCCC1)c1cccc([N+](=O)[O-])c1 | -13.2
COc1ccc2c(c1)C(NS(=O)(=O)OCC(Cl)(Cl)Cl)CCC2 (centres unmarked) | -0.647
CCOc1ccc(NCCC#N)cc1 | -7.61
O=c1[nH]c(NCc2ccccc2)nc2c1CCC2 | 12.2

Compound | hERG current change (%, negative = inhibition) at 10uM [%]
COc1ccc(C(=O)C2CCCN(C3CSCCSC3)C2)cc1OC (centres unmarked) | -21.8
COc1ccc(/C=C2\CCn3c2nc2cc(C(=O)O)ccc2c3=O)cc1O | 2.38
NC(=O)C1CC(=O)N(c2ccc(OCC(=O)Nc3ccccc3F)cc2)C1 (centres unmarked) | 12.2
Cc1cccc(N(CC(=O)NC2CCCC2)C(=O)CCCC(=O)Nc2ccccn2)c1 | -2.02
CCC1CCCCN1C(=O)CSc1nc2c([nH]c3ccccc32)c(=O)n1C (centres unmarked) | 9.72
Cc1ccc(CNC(=O)C2CCCN(S(=O)(=O)N3CCC(C)CC3)C2)cc1 (centres unmarked) | 9.17
NC(=O)c1cc([N+](=O)[O-])ccc1N1CCN(Cc2ccccc2)CC1 | -41.8
CCn1c(CNC(=O)c2ccc(Cl)cc2)nnc1SCC(=O)N1CCOCC1 | -1.05
CC(=O)Nc1ccc(S(=O)(=O)N2CCC(C(=O)Nc3nccs3)CC2)cc1 | 12.7
CC(=O)N(c1ccc(C)cc1)C1C=CS(=O)(=O)C1 (centres unmarked) | 7.3
CCc1ccc(/C=N/NC(=O)Cc2ccc(OC)c(OC)c2)s1 | 3.47
c1ccc2c(c1)COC(CN1CCCCC1)OC2 | 0.482
CC(C)Cn1c(N)c(C(=O)COC(=O)c2cc(C(F)(F)F)nc3ccccc23)c(=O)n(C)c1=O | 0.872
O=C(COc1ccc(F)cc1Cl)NC1CCCCCC1 | -5.81
COc1ccc(-n2ncc3c2CC(C)(C)CC3NC(=O)c2c(C)cc(=O)oc2C)cc1 (centres unmarked) | -51.1
N#Cc1ccc(C(=O)OCC(=O)Nc2ccc(S(N)(=O)=O)cc2)cc1 | -0.961
COc1cccc(C(Nc2ccccn2)c2oc(CO)cc(=O)c2O)c1 (centres unmarked) | 9.73
CCC(=O)Nc1ccc(C(=O)n2ccc(C)n2)cc1 | 13.1
O=C1CC(Cc2ccc(Cl)cc2)C(=O)N1c1cc(Cl)ccn1 (centres unmarked) | -36
COC(=O)N/N=C1\CCCc2ccccc21 | 10.7
O=C(COc1coc(CN2CCN(c3ccc(F)cc3)CC2)cc1=O)NC1CCCC1 | -53.1
O=C(Nc1cccc(S(=O)(=O)N2CCCCC2)c1)c1ccc2c(c1)OCO2 | -8.11
COc1cc(CN2CC3CC(C2)c2cccc(=O)n2C3)cc(OC)c1OC (centres unmarked) | -6.41

Compound | hERG current change (%, negative = inhibition) at 10uM [%]
CCCCC1=CC2=CC(=O)C(C)(OC(=O)CC)C(=O)C2=CN1CCCOC(C)C (centres unmarked) | -7.36
CCOc1ccccc1N1CCN(C(=O)C2c3ccccc3Oc3ccccc32)CC1 | -6.22
CC1(C(=O)OCC(=O)Nc2cccc(S(=O)(=O)NC3=NCCCCC3)c2)CC1(Cl)Cl (centres unmarked) | 10.7
Cc1cc(C(=O)CSc2ccc3c(c2)OCCO3)c(C)n1C1CC1 | -12.4
O=C(/C=C/c1ccc(Cl)cc1)Nc1ccc(N2CCOCC2)cc1 | 2.39
CCOC(=O)c1cc2oc(C)cc2n1CC(=O)OC1CCCCC1 | -5.5
COc1cc(C)ccc1OCc1cc(C(=O)N2CCN(C3CCCCC3)CC2)no1 | -24.4
Cc1ccc(S(=O)(=O)/N=C2\C=C(Nc3cccc(C(=O)O)c3)C(=O)c3ccccc32)cc1 | 14.4
Cc1cccc(NC(=O)c2ccc(S(=O)(=O)N3CCC(C)CC3)cc2)n1 | -59.2
O=C(NCc1cccc(Cl)c1)NC(=O)c1csc([N+](=O)[O-])c1 | 5.38
Cc1cc(C)cc(NC(=O)CSc2nc3c(c(=O)n2C)SC(C)C3)c1 (centres unmarked) | 3.64
CSc1nc(N(C)C)c2ccccc2n1 | -19
CCOc1ccc(C2C=C(c3ccccc3)Nc3ncnn32)cc1 (centres unmarked) | -47.2
CCOC(=O)/C(=N/Nc1ccc(OC)cc1)Sc1nnc(CCc2ccccc2)n1-c1ccccc1 | 7.41
Cc1nc(SCC(=O)NCc2ccco2)nc(C)c1C | -6.76
CC1Cc2ccccc2N1C(=O)COC(=O)CCc1nc2ccccc2c(=O)[nH]1 (centres unmarked) | -24.8
CCOC(=O)N1CCC(NC(=O)c2cccn3c(=O)c4cc(Br)ccc4nc23)CC1 | 3.69
CCC(Sc1nc(C)cc(=O)[nH]1)C(=O)Nc1nc2c(s1)CCCC2 (centres unmarked) | -12.4
COc1ccc(CNC(=O)C2CCN(C(=O)N(C)C)CC2)c(OC)c1 | -2.33
Cc1nc2ccccn2c1C(=O)N=Nc1c(O)[nH]c2ccccc12 | -1.89

Source: PMC4336329 (PLoS ONE, 2015)
